{"source": "PubChem BioAssay (NCI)", "note": "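Briefly, cells in 96-well plates were exposed to five compound concentrations for 48 h, and endpoints were estimated by linear interpolation. At the GI50, growth is halved. TGI denotes the concentration required for complete inhibition of growth.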 Peptide text beside a SMILES is read from it. * marks the point of attachment. Cbz = O=C(OCc1ccccc1)*; Bn = c1ccc(C*)cc1", "data": [{"tested_on": "NCI-H322M lung", "assay": "NCI tumour cell line growth inhibition, 48 h", "units": {"TGI": "µM", "GI50": "µM"}, "values": [{"compound": "CC(=O)OCC1OC(NC(=O)N(CCCl)N=O)C(OC(C)=O)C(OC(C)=O)C1OC(C)=O", "note": "(stereo unspecified)", "TGI": "> 100"}, {"compound": "O=C(Nc1cc(Cl)ccc1O)c1ccccc1Nc1ccnc(C(F)(F)F)c1", "GI50": 3.52, "TGI": 15.8}, {"compound": "COS(C)(=O)=O", "TGI": "> 2"}, {"compound": "COc1ccc(CNc2nc(NCc3ccc(OC)cc3)nc(NC3CCCC3)n2)cc1", "TGI": 14}, {"compound": "O=c1[nH][nH]c(=O)n1/N=C/c1ccccc1", "TGI": "> 100"}, {"compound": "Cn1c(=O)c(Oc2ccc(F)cc2F)cc2cnc(N[C@@H]3CCOC3)nc21", "GI50": "> 25", "TGI": "> 25"}, {"compound": "O=C(NCCOCCOCCOCCNC(=O)c1cc2c(o1)C(=O)c1ccccc1C2=O)NC12CC3CC(CC(C3)C1)C2", "GI50": 1.49, "TGI": 2.94}, {"compound": "CCOc1ccc(C(C[N+](=O)[O-])Sc2ccccc2N)cc1", "note": "(stereo unspecified)", "GI50": 14.6, "TGI": 27.7}, {"compound": "Cc1c2ccncc2c(C)c2c1[nH]c1ccc(Oc3ccccc3)cc12", "TGI": "> 100"}, {"compound": "CN(C)C(=S)C(Cl)(c1ccccc1)c1ccccc1", "TGI": "> 100"}, {"compound": "O=C(O)CCCNc1ncc2c(n1)-c1ccccc1OC2", "TGI": "> 100"}, {"compound": "COC1=C2CC(C)CC(OC)C(OC(=O)CN)[C@H](C)/C=C(\\C)C(OC(N)=O)C(OC)/C=C\\C=C(/C)C(=O)NC(=CC1=O)C2=O", "note": "(stereo partly specified)", "TGI": 25.3}, {"compound": "NC(CCP(=O)(O)O)C(=O)O", "note": "(stereo unspecified)", "TGI": "> 100"}, {"compound": "COC(=O)CC(C(C(=O)OC)C(=O)OC)N1C(=O)OC(c2ccccc2)C1c1ccccc1", "note": "(stereo unspecified)", "TGI": "> 100"}, {"compound": "O=C(Nc1cc(Cl)cc(Cl)c1)c1cccc(NC2=C(Cl)C(=O)N(Cc3ccccc3)C2=O)c1", "GI50": 58.3, "TGI": "> 100"}, {"compound": "O=[N+]([O-])c1ccc2sc(/C=N/c3ccccn3)cc2c1", "TGI": "> 100"}, {"compound": "COc1cc(-c2nc3ccccc3o2)cc(CN2CCCCC2)c1O", "GI50": 13.2, "TGI": 40.9}, {"compound": "C=CCOCn1cc(F)c(=O)[nH]c1=O", "TGI": "> 100"}, {"compound": "COC(=O)Cc1c([C@H]2[C@H](CC(=O)OC)c3ccccc3N2S(=O)(=O)c2ccc(C)cc2)[nH]c2ccccc12", "TGI": "> 100"}, {"compound": "COc1c(I)c(OC)c2c(c1I)O[C@@H]1OCC[C@H]21", "TGI": "> 100"}, {"compound": "CCN1C(=O)N(CC)C2C1NN=c1s/c(=C3\\C(=O)N(C4CCCC4)c4ccccc43)c(=O)n12", "note": "(stereo unspecified)", "GI50": 2.93, "TGI": "> 100"}, {"compound": "COc1ccc(OC)c(NC(=O)C(=O)CC(=O)c2sc(-n3nc(-c4ccccc4)cc3-c3ccccc3)nc2C)c1", "TGI": "> 100"}, {"compound": "CC(=O)Nc1ccc(S(=O)(=O)N=S(C)C)cc1", "TGI": "> 100"}, {"compound": "COc1ccc(OC)c(/C=C2\\CCc3ccccc3C2=O)c1", "TGI": 51.3}, {"compound": "Clc1ccc2c(c1)N(C1CCCN(Cc3ccccc3)C1)c1ccccc1S2", "note": "(stereo unspecified)", "GI50": 4.88, "TGI": "> 100"}, {"compound": "C1CSCCSCSCCS1", "TGI": "> 100"}, {"compound": "COc1ccc(S(=O)(=O)Nc2c(/C=C\\c3cc(OC)c(OC)c(OC)c3)ccc(OC)c2O)cc1", "GI50": 0.0633, "TGI": "> 100"}, {"compound": "COc1cc2cc3c4c(cc(OC)c(OC)c4c2cc1OC)CCN3C", "TGI": "> 50"}, {"compound": "CCOC(=O)c1c(N2CCCC2)[nH]c(=O)c(C(c2ccc(Cl)c([N+](=O)[O-])c2)c2c(O)c(C(=O)OCC)c(N3CCCC3)[nH]c2=O)c1O", "TGI": "> 100"}, {"compound": "COc1cc2c3c(n(CCCNCCCNCCN)c(=O)c2cc1OC)-c1cc2c(cc1C3=O)OCO2", "GI50": 71.4, "TGI": "> 100"}, {"compound": "c1ccc2c(c1)c1c3c(c4c(n32)=NCCN4)CCC1", "TGI": "> 100"}, {"compound": "CC(=O)Nc1cc2cc(NS(=O)(=O)c3ccc(Cl)c(Cl)c3)ccc2oc1=O", "TGI": "> 100"}, {"compound": "CN(/N=C/c1ccccn1)C1=NCCCN1", "TGI": "> 100"}, {"compound": "CSc1ccc(NC(=O)C2c3[nH]c4ccccc4c3C3CCC(C(C)(C)C)CC3C2C(=O)O)cc1", "note": "(stereo unspecified)", "TGI": 64.8}, {"compound": "CC1C[C@]2(C[C@@H](C)C(=O)O2)OC2CC3(C)C4CCC5C(C)(C)OC(=O)CC[C@@]56C[C@@]46CC[C@]3(C)C12", "note": "(stereo partly specified)", "TGI": "> 100"}, {"compound": "O=C(CSCC(=O)N/N=C\\c1ccc(O)c(O)c1O)N/N=C\\c1ccc(O)c(O)c1O", "TGI": 41.7}, {"compound": "CC(NC1=CC(=O)c2cccnc2C1=O)C(O)c1ccccc1", "note": "(stereo unspecified)", "TGI": 7.21}, {"compound": "CS(=O)(=O)OCCCSCCSCCCOS(C)(=O)=O", "TGI": "> 100"}, {"compound": "CCOC(=O)c1[nH]c2cc(OC)c(OC)cc2c1CN(C)C", "TGI": "> 100"}, {"compound": "Oc1[nH]c2ccccc2c1/C=c1/ccc2c(c1)N=C(c1ccc(C(F)(F)F)cc1)N=2", "GI50": 7.06, "TGI": 20.3}, {"compound": "O=C(c1ccc([N+](=O)[O-])cc1)C(Br)C(Br)c1ccnc2ccccc12", "note": "(stereo unspecified)", "TGI": 29.4}, {"compound": "Nc1cccc(OCC2CCCN3CCCCC23)c1", "note": "(stereo unspecified)", "TGI": 30.2}, {"compound": "N#CC(C#N)=c1c2ccccc2c(=C(C#N)C#N)c2ccccc12", "TGI": 30.9}, {"compound": "COC(=O)C(Cc1ccc(O)cc1)NC(=O)C(COCc1ccccc1)NC(=O)OCc1ccccc1", "note": "(stereo unspecified) (Cbz-Ser(Bn)-Tyr-OMe; configuration not given here)", "TGI": 34.9}, {"compound": "CN(C)CCOc1cc2c(c3ccccc13)-c1ccccc1C2O", "note": "(stereo unspecified)", "TGI": 25.7}, {"compound": "CCCCCCCCCCNCCSS(=O)(=O)O", "GI50": 2.68, "TGI": 6.48}, {"compound": "COc1cc(/C=C(\\NC(=O)c2ccccc2)c2nc3ncncc3[nH]2)cc(OC)c1OC", "TGI": "> 100"}, {"compound": "Cc1c2ccncc2c(C)c2c1sc1ccccc12", "TGI": 70}, {"compound": "c1ccc(Oc2ccc(Nc3ncc(-c4ccccc4)o3)cc2)cc1", "GI50": "> 25", "TGI": "> 25"}, {"compound": "CCOC(=O)CSC1NC(C(=O)OC)CC1OC", "note": "(stereo unspecified)", "TGI": "> 100"}, {"compound": "OCCCCn1cc(Cn2ncc3c(NCc4ccccc4)ncnc32)nn1", "TGI": "> 100"}, {"compound": "c1ccc(Cn2c(-c3ccc(-c4ccccc4)cc3)cc3ccccc32)cc1", "TGI": "> 100"}, {"compound": "CCS(=O)c1c2cc(OC)ccc2nc2ccc(OC)cc12", "note": "(stereo unspecified)", "TGI": 34.2}, {"compound": "Nc1nc(N)c2ncn(CCOC(c3ccccc3)P(=O)(O)O)c2n1", "note": "(stereo unspecified)", "TGI": "> 100"}, {"compound": "N#C/C(=C1\\OC(=N)C(c2ccccc2)C1=O)c1ccccc1", "note": "(stereo unspecified)", "TGI": "> 100"}, {"compound": "COCCc1n(Cc2ccc3ccccc3c2)c2ccccc2[n+]1Cc1ccc2ccccc2c1", "GI50": 1.26, "TGI": 2.6}, {"compound": "O=C1c2ccccc2C(=O)c2c(NC(=O)C3CC3)ccc(NC(=O)C3CC3)c21", "TGI": "> 100"}, {"compound": "O=C1OCC(c2ccc(Cl)cc2)=C1Cl", "TGI": 55.1}, {"compound": "O=C(/C=C/c1ccccn1)c1ccc(OCc2nnc(-c3ccc(Cl)cc3)o2)cc1", "GI50": 3.06, "TGI": 8.53}, {"compound": "COC(=O)c1ccc(C)cc1CC1Cc2cccc(C)c2C1=O", "note": "(stereo unspecified)", "TGI": 76.7}, {"compound": "COc1cc([N+](=O)[O-])c(S(=O)(=O)O)cc1-n1nc(C(=O)Nc2ccccc2)n[n+]1-c1cc(S(=O)(=O)[O-])c([N+](=O)[O-])cc1OC", "TGI": "> 100"}, {"compound": "COc1c(C(C)(C)C)cc(CC2C(=O)C=CC2=O)cc1C(C)(C)C", "TGI": 42.8}, {"compound": "C(=C\\C(Sc1ccccc1)c1ccccc1)/NNC1=NC(c2ccccc2)C(c2ccccc2)=NN1", "note": "(stereo unspecified)", "TGI": "> 100"}, {"compound": "CCOC(=O)OC1C(Br)C2CCC1(C)C2(C)C", "note": "(stereo unspecified)", "TGI": 29.3}, {"compound": "CC(C)OC/N=C(/N)NC#N", "TGI": "> 100"}, {"compound": "Oc1ccc2ccccc2c1C=NCc1c(O)ccc2ccccc12", "TGI": "> 100"}, {"compound": "CS(=O)(=O)c1cccc(Nc2ncc3cc(-c4ccccc4Cl)ccc3n2)c1", "GI50": 2.13, "TGI": "> 33.3"}, {"compound": "COc1ccc2c(c1)/C(=C\\c1c(-c3cc(OC)ccc3OC)nc3sccn13)C(=O)N2", "GI50": 12.9, "TGI": 25.8}, {"compound": "COc1ccc2c(c1)C(OC)C1c3c(cc4c(c3-2)OCO4)CCN1C", "note": "(stereo unspecified)", "TGI": "> 87.2"}]}]}
